# Results reported in PMC4336329 (PLoS ONE, 2015).
# Hit rate of the full screen: of about 310,000 compounds, about 14,000 (4.5%) showed an effect of 50% or more. The effect is printed as a negative number. The list shows a part of the results.
# Target: human ether-à-go-go-related gene (hERG) potassium channel (human, UniProt Q12809)
# Test: primary screen, population patch clamp on CHO cells stably expressing hERG
# 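Also: peak tail current of the secondary pulse compared with the same well before compound.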
# Sequence of human ether-à-go-go-related gene (hERG) potassium channel (Q12809 whole entry, looked up): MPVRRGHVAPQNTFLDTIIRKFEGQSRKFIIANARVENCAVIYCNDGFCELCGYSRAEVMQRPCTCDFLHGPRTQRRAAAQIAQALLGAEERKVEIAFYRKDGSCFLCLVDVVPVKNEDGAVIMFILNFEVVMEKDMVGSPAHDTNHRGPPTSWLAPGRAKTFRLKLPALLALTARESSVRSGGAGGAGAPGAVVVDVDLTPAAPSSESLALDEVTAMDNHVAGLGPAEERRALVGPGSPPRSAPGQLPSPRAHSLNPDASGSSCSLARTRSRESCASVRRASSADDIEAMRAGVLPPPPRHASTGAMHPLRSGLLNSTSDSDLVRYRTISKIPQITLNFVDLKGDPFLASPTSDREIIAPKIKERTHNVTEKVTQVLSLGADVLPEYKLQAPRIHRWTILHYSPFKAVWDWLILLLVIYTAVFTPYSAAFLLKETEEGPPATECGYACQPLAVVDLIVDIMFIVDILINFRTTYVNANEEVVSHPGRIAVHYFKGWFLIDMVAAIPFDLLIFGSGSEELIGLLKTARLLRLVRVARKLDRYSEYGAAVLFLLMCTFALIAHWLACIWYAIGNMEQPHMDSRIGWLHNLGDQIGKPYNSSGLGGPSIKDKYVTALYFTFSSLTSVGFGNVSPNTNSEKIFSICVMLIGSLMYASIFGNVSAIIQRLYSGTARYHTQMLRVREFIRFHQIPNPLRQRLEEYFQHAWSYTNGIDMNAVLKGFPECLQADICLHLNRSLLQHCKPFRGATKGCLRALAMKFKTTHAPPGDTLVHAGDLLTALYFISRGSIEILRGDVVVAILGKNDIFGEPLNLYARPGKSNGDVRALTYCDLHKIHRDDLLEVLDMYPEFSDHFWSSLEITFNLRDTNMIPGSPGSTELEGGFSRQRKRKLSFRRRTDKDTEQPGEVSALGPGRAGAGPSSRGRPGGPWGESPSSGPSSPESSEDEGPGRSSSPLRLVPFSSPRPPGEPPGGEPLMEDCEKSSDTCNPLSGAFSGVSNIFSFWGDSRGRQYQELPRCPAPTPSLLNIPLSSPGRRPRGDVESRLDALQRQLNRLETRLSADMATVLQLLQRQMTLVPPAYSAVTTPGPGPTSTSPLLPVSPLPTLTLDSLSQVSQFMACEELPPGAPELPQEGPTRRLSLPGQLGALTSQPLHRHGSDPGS
row,SMILES,"hERG current change (%, negative = inhibition) at 10uM [%]"
1,O=C(Nc1ccc(N2CCCC2)c(Cl)c1)c1ccc2c(c1)OCCO2,11.8
2,CN(C)CCN(C(=O)c1cccs1)c1nc2cc3c(cc2s1)OCCO3.Cl,-23.6
3,CCC1CCCCN1C(=O)/C=C/c1ccc2c(c1)OCO2 (stereo not drawn),-20.7
4,CC(=O)c1ccc(NC(=O)CN2CCC(NC(=O)C3CCCCC3)CC2)cc1,-6.72
5,O=C(O)c1cccc(S(=O)(=O)Nc2cc(Cl)ccc2Cl)c1,14.1
6,CC(=O)N1CCN(c2ccc(NC(=O)c3cc(Cl)ccc3Cl)cc2)CC1,20.2
7,Cn1c(=O)c(=O)n(C)c2cc(S(=O)(=O)N3CCN(c4ccc(F)cc4)CC3)ccc21,-15.8
8,Cc1oc(-c2ccccc2F)nc1CS(=O)(=O)CC(=O)NCCCc1ccccc1,-9.05
9,CC1CCN(CCCn2c(=S)[nH]c3c(sc4ccccc43)c2=O)CC1.Cl,-2.06
10,O=C(CCOc1ccccc1)Nc1ccc(S(=O)(=O)Nc2ncccn2)cc1,-18.2
11,O=C(CCCC(=O)OCC1CCCO1)OCC1CCCO1 (stereo not drawn),8.27
12,Cc1cc(C)c2c(N)c(C(=O)N/N=C/c3ccccc3)sc2n1,19
13,O=C(NCc1ccccc1C(F)(F)F)C1CC(c2cccc(F)c2)=NO1 (stereo not drawn),-3.26
14,Cc1ccc(Oc2c(CO)c(-c3ccccc3)nn2C)cc1,12.4
15,COc1ccc([C@H]2/C=C\CN(S(=O)(=O)c3ccc(C)cc3)[C@@H](C)C(=O)N2Cc2ccc(F)cc2)cc1,-44
16,CCOCCOC(=O)C(C)Sc1n[nH]c(=O)[nH]c1=O (stereo not drawn),5.53
17,O=C(Cc1cccs1)N1CCN(S(=O)(=O)c2ccc(F)c(F)c2)CC1,-19.9
18,Cc1cc(C)cc(-n2ncc3c2CCCC3NC(=O)c2ccccc2N2CCOCC2)c1 (stereo not drawn),-30.5
19,O=C(N/N=C/c1ccc(-c2ccccc2Cl)o1)c1ccccc1,12.4
20,COc1ccc(/C=N\NC(=O)c2c(C)nc3ccc(Br)cn23)cc1,0.421
21,O=C(COC(=O)c1n[nH]c2ccccc12)c1cc(F)ccc1F,1.25
22,COc1ccc(CCC(=O)N2CCN(C3CCCCC3)CC2)cc1,-69.1
23,COc1ccc(NC(=O)Nc2ccc(OC)c(OC)c2)c([N+](=O)[O-])c1,11.1

row,SMILES,"hERG current change (%, negative = inhibition) at 10uM [%]"
1,COc1ccc(CCNC(=O)CN(c2ccc(OC)c(OC)c2)S(=O)(=O)c2ccccc2)cc1OC,-9.79
2,CCOC(=O)c1cc(C#N)c(Nc2ccc(C)cc2)nc1C(F)(F)F,12
3,Nc1ccnn1Cc1ccncc1,13
4,CC(=O)N(CCOc1ccccc1)CCOc1ccccc1,-7.74
5,CN(CC(=O)Nc1ccccc1Cl)C(=O)CSc1nnc(-c2ccco2)o1,-7.79
6,CCOc1ccc(NS(=O)(=O)c2ccc(C(=O)N3CCCCCC3)cc2)cc1,-15.4
7,Cc1nc2nc(C)c(NS(=O)(=O)c3ccc(C4CCCCC4)cc3)c(=O)n2[nH]1,24.2
8,COc1cccc(-c2noc(CCC(=O)NCCc3ccccc3)n2)c1,-9.49
9,O=C(C[n+]1ccccc1)N/N=C/c1ccc(C(=O)O)cc1.[Cl-],0.121
10,COC(=O)c1ccccc1S(=O)(=O)N1CCC(C(=O)OCC(=O)NC2CCCCC2C)CC1 (stereo not drawn),-20.2
11,Cc1noc(-c2ccccc2)c1NC(=O)Nc1ccc(Cl)cc1,7.78
12,COc1ccc(OC)c(CNC(=O)CCCc2cn(C)c3ccccc23)c1,-3.98
13,O=C(O)c1sc2cccc(Cl)c2c1Cl,-0.477
14,COc1ccc(NC(=O)C2CC(c3ccccc3O)=NO2)cc1OC (stereo not drawn),13.5
15,COC(=O)C1=C(c2ccccc2)C[C@@H]2CC[C@H]1N2C(=O)NCc1ccc(F)cc1,-9.03
16,CCc1nnc(NC(=O)CSc2ncnc3scc(-c4ccc(C)cc4)c23)s1,-4.72
17,COc1ccc(-c2cc3cc(OC)c(OC)cc3cn2)cc1OC.Cl,15.2
18,CC1(C)C2CCC(C2)C1(C)NC(=O)CNCc1cccs1.Cl (stereo not drawn),1.81
19,COC(=O)c1ccc2nccnc2c1,4.88
20,COc1cc(/C=C/[N+](=O)[O-])ccc1OC(=O)c1cc2ccccc2oc1=O,20.1
21,Cc1cc(NC(=O)/C=C/C(=O)N(CC(=O)NC2CCCC2)c2ccc(F)cc2)no1,0.716
22,COc1ccc(CCn2c(O)c(/C=N/NC(=O)c3ccncc3)c(=O)[nH]c2=O)cc1OC,24.7
